According to PubChem BioAssay (NCI):
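Each compound was tested at five concentrations against cells in 96-well plates for 48 hours. The concentration for 50% growth inhibition is given as GI50. Definition used: TGI = concentration required for complete inhibition of growth.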

What follows are compounds tested on NCI-H322M lung (assay: DTP human tumour cell line panel, 48 h).

Going from `CC1(C)CC[C@]2(C(=O)O)CC[C@]3(C)C(=CCC4[C@@]5(C)C[C@@H](O)[C@@H]6OC(c7ccco7)OC[C@@]6(C)C5CC[C@]43C)C2C1` (stereo partly drawn) to `O=C(NNc1nc2cc(F)ccc2n2c(CN3CC4CNCC4C3)ccc12)c1ccncn1` (stereo not drawn), the GI50 falls from 7.21 µM to 1 µM (7.2-fold).

Going from `Cc1cc2nc3c4ccccc4n(CCCN(C)C)c3nc2cc1C` to `CC1=C(C(=O)OCc2ccccc2)C(c2cccc3ccccc23)n2c(nc3ccccc32)N1` (stereo not drawn), the GI50 rises from 2.41 µM to 8.39 µM (3.5-fold).

Going from `CC1(C)CC[C@]2(C(=O)O)CC[C@]3(C)C(=CCC4[C@@]5(C)C[C@@H](O)[C@@H]6OC(c7ccco7)OC[C@@]6(C)C5CC[C@]43C)C2C1` (stereo partly drawn) to `O=C(NNc1nc2cc(F)ccc2n2c(CN3CC4CNCC4C3)ccc12)c1ccncn1` (stereo not drawn), the TGI falls from 25.3 µM to 13.4 µM (1.9-fold).

Going from `Cc1cc2nc3c4ccccc4n(CCCN(C)C)c3nc2cc1C` to `CC1=C(C(=O)OCc2ccccc2)C(c2cccc3ccccc23)n2c(nc3ccccc32)N1` (stereo not drawn), the TGI rises from 7.2 µM to > 100 µM.
